Experimental findings from a collection of fitness landscapes (doi:10.1126/science.1257360) are described below.

The other results are listed elsewhere or left out.

B1: PhoQ; a variant is named by its letters at X, in order, P23837 (parent)
chain: MKKLLRLFFPLSLRVRFLLATAAVVLVLSLAYGMVALIGYSVSFDKTTFRLLRGESNLFYTLAKWENNKLHVELPENIDKQSPTMTLIYDENGQLLWAQRDVPWLMKMIQPDWLKSNGFHEIEADVNDTSLLLSGDHSIQQQLQEVREDDDDAEMTHSVAVNVYPATSRMPKLTIVVVDTIPVELKSSYMVWSWFIYVLSANLLLVIPLLWVAAWWSLRPIEALAKEVRELEEHNRELLNPATTRELTSLVRNLNRLLKSERERYDKYRTTLTDLTHSLKTPLXXLQXXLRSLRSEKMSVSDAEPVMLEQISRISQQIGYYLHRASMRGGTLLSRELHPVAPLLDNLTSALNKVYQRKGVNISLDISPEISFVGEQNDFVEVMGNVLDNACKYCLEFVEISARQTDEHLYIVVEDDGPGIPLSKREVIFDRGQRVDTLRPGQGVGLAVAREITEQYEGKIVAGESMLGGARMEVIFGRQHSAPKDE

The variants in this assay derive from B1. Kind of assay: enrichment ratio after two sorts for PhoP signalling (ratio (wild type AVST 3.29)); higher = more functional. Conditions: with PhoP (E. coli).
Take HLDS: the enrichment ratio is not above 0.25.
In the case of RMIH, the enrichment ratio was not above 0.25.
Take QNQH: the enrichment ratio was not above 0.25.
Then DQGM, with not above 0.25; and HWQY, with not above 0.25; and HSFC, with not above 0.25.
Then REFF, with not above 0.25.
Then NVHI, with not above 0.25; and DLLQ, with not above 0.25; and CLSV, with not above 0.25.
With PSNH, the enrichment ratio was not above 0.25.
As for SAVY, the enrichment ratio amounted to 1.85.
With YWDD the figure was not above 0.25.
With THGK the figure was not above 0.25; with QNNN, not above 0.25; with KQGI, not above 0.25.
For the variant VKRD, the enrichment ratio was not above 0.25.
Then HSGR, with not above 0.25.
Turning to SEME, the enrichment ratio is not above 0.25.
Then PSFK, with not above 0.25; and IGIW, with not above 0.25.
Then DCSS, with not above 0.25; and GYDR, with not above 0.25.
With LGAE the figure was not above 0.25; with QMMQ, not above 0.25; with MVCS, not above 0.25.
For VGIM, the enrichment ratio is not above 0.25.
Then QGCD, with not above 0.25; and TKAN, with not above 0.25; and RGTN, with not above 0.25.
For LLVR, the enrichment ratio is not above 0.25.
Then YNGA, with not above 0.25; and SRAW, with not above 0.25.
For the variant QYNN, the enrichment ratio was not above 0.25.
With WRPI the figure was not above 0.25; with MFME, not above 0.25; with QQSD, not above 0.25.
HYES: the enrichment ratio is not above 0.25.
For the variant KLVS, the enrichment ratio was not above 0.25.
Then DETN, with not above 0.25.
With AQRQ the figure was not above 0.25.
With PRKM the figure was not above 0.25; with LEFE, not above 0.25; with NPGG, not above 0.25.
For the variant WDEG, the enrichment ratio is not above 0.25.
Then LKSR, with not above 0.25; and PCIW, with not above 0.25; and SGKR, with not above 0.25.
Regarding YRNC, the enrichment ratio is not above 0.25.
Then RNLG, with not above 0.25.
Then KDFI, with not above 0.25.
In the case of MMEQ, the enrichment ratio is not above 0.25.
On to HYNT, for which the enrichment ratio was not above 0.25.
Then SKGL, with 0.548.
In the case of DQLT, the enrichment ratio is not above 0.25.
On to RCVK, for which the enrichment ratio was not above 0.25.
Then QGVY, with not above 0.25.
With NPEF the figure was not above 0.25.
Then VCES, with not above 0.25; and AIYV, with not above 0.25; and TNPQ, with not above 0.25.
For NFDA, the enrichment ratio is not above 0.25.
Consider DEVM, for which the enrichment ratio is not above 0.25.
Then EHSM, with not above 0.25; and PFDW, with not above 0.25.
With NESE the figure was not above 0.25; with SSVT, 14.6.
Then RLAC, with not above 0.25.
Take FFCT: the enrichment ratio is not above 0.25.
Then GMAK, with not above 0.25; and RCPT, with not above 0.25; and AHLT, with not above 0.25.
With TDHT the figure was not above 0.25; with PVQQ, not above 0.25; with GECH, 4.96.
Then TMML, with 6.33; and SQLK, with not above 0.25.
On to TTLT, for which the enrichment ratio turned out to be 15.8.
Then KKES, with not above 0.25; and RALH, with not above 0.25.
As for AWLT, the enrichment ratio is not above 0.25.
With WNGV the figure was not above 0.25.
With TIDF the figure was 3.66; with VRAV, not above 0.25.
With NAQL the figure was not above 0.25; with MWRI, not above 0.25.
As for PLQE, the enrichment ratio was not above 0.25.
With RGFL the figure was not above 0.25; with ECCF, not above 0.25.
Regarding ASNE, the enrichment ratio was not above 0.25.
Then ATMT, with not above 0.25; and PAPR, with not above 0.25.
Then FHHF, with not above 0.25; and TLWL, with not above 0.25.
With ATNF the figure was 20.9.
Take RFMP: the enrichment ratio was not above 0.25.
Turning to AAKQ, the enrichment ratio is not above 0.25.
With DMIL the figure was not above 0.25; with KTRD, not above 0.25.
Then VHYK, with not above 0.25; and ERSG, with not above 0.25.
Then LGFR, with not above 0.25.
Regarding PHFA, the enrichment ratio was not above 0.25.
Then FYLM, with not above 0.25.
Then TIHP, with not above 0.25; and KPHQ, with not above 0.25.
Then DTSL, with not above 0.25; and NPNL, with not above 0.25; and VVLQ, with not above 0.25.
In the case of PDLW, the enrichment ratio was not above 0.25.
With WFQP the figure was not above 0.25; with SCTR, 1.82; with AGCH, 11.6.
Consider KMQA, for which the enrichment ratio is not above 0.25.
As for AKTQ, the enrichment ratio was not above 0.25.
With GKLW the figure was not above 0.25; with IAYQ, not above 0.25; with WHTS, not above 0.25.
Then SGTD, with not above 0.25; and YQKK, with not above 0.25.
With HSEG the figure was not above 0.25; with EKDT, not above 0.25.
Regarding RVGK, the enrichment ratio is not above 0.25.
Then WYFV, with not above 0.25; and MMYQ, with not above 0.25; and VFNF, with not above 0.25.
With FFKL the figure was not above 0.25; with TAVG, not above 0.25.
With YACQ the figure was not above 0.25; with NPYY, not above 0.25; with DGFF, not above 0.25.
As for PPPV, the enrichment ratio is not above 0.25.
Consider LHNK, for which the enrichment ratio was not above 0.25.
For DEHT, the enrichment ratio was not above 0.25.
For the variant IWGH, the enrichment ratio is not above 0.25.
Turning to DVEP, the enrichment ratio is not above 0.25.
YPFN: the enrichment ratio was not above 0.25.
With ALCK the figure was 8.18.
With WEHR the figure was not above 0.25; with GPMP, not above 0.25; with QQDV, not above 0.25.
With NKMI the figure was not above 0.25.
For the variant NALN, the enrichment ratio was not above 0.25.
With QMIS the figure was not above 0.25; with GNYH, not above 0.25.
On to QTMP, for which the enrichment ratio is not above 0.25.
With KYTD the figure was not above 0.25.
Consider FVFL, for which the enrichment ratio is not above 0.25.
In the case of EHQF, the enrichment ratio was not above 0.25.
Then MNRC, with not above 0.25; and VNWT, with not above 0.25; and VTAG, with not above 0.25.
With SEFY the figure was 5.8.
